The supplement of paper PMC10126150
Sequences with one replicate were seen in a single cluster, so their values are uncertain.

Tested on: ATP
Experiment: switch fluorescence ratio, 500 uM ATP over buffer (Cy3 cluster intensity, sum of 5 cycles each) (fold (ratio)); higher = stronger signal-on switching upon ATP binding; sequences stand for … in TCGTCGGCAGCGTCAGATGTGTATAAGAGACAGTTTTTTTTTTTTTTTTTTTTTTTTT…TC
Conditions: aptamer strand: ATP DNA aptamer (quencher-CACCTGGGGGAGTATTGCGGAGGAAGG + anchor), 100 nM annealed; ATP concentration: 500 uM; one replicate
How it was run: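 For every switch-domain sequence, the fluorescence ratio is the mean of per-cluster values, each being summed target-cycle Cy3 intensity over summed buffer-cycle Cy3 intensity. Clusters outside 100-1000 RFU were excluded. On a modified Illumina MiSeq flow-cell, the Cy3-labelled switching-strand clusters were annealed to 100 nM quencher-labelled ATP aptamer, imaged in selection buffer and then after 15 min with 500 uM ATP at 22 °C. Five such cycles were run, with NaOH stripping and re-annealing between them.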
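Note: ATP exposure 15 min at 22 °C before imaging.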

Row | Sequence | switch fluorescence ratio
1 | CATAGTTGGC | 1.06
2 | CATATATAAT | 0.958
3 | CATATCTTCA | 1.13
4 | CATATGTATT | 0.981
5 | CATATTCTGT | 0.992
6 | CATCACTGGT | 1.03
7 | CATCATATTT | 0.985
8 | CATCATTCAG | 0.994
9 | CATCATTTCT | 1.06
10 | CATCCAGAGT | 1.03
11 | CATCCATTGG | 0.996
12 | CATCCTTAAA | 1.12
13 | CATCGACGTA | 1.22
14 | CATCGAGCGT | 1.01
15 | CATCGCCCAG | 1.19
16 | CATCGCCTTC | 1.23
17 | CATCGGTGAC | 1.06
18 | CATCTAAACT | 1.05
19 | CATCTATAGT | 1.03
20 | CATCTATGTA | 0.996
21 | CATCTCCAGT | 1.03
22 | CATCTGTGGA | 0.996
23 | CATCTTGCTA | 1.12
24 | CATCTTTTGC | 1.03
25 | CATGAACTCT | 1
26 | CATGAATTCC | 1.07

Row | Sequence | switch fluorescence ratio
27 | CATGACTTCG | 0.987
28 | CATGAGATAA | 1.02
29 | CATGAGATTA | 1.02
30 | CATGAGCAAC | 1.95
31 | CATGATGTAG | 1.04
32 | CATGATTACA | 1.02
33 | CATGCCCCCA | 1.06
34 | CATGCCGTTG | 1.01
35 | CATGCTTTAG | 0.975
36 | CATGGAGGTT | 1.03
37 | CATGGAGTTT | 1.02
38 | CATGGATCGT | 0.986
39 | CATGGCAGAG | 1.02
40 | CATGGCCCGT | 1
41 | CATGGGAATG | 1.01
42 | CATGGGACTG | 1.07
43 | CATGGGCAC | 1.02
44 | CATGGGGACG | 1.01
45 | CATGGGTACC | 0.983
46 | CATGGGTTA | 0.969
47 | CATGGTGAGG | 1.01
48 | CATGGTGGG | 1.02
49 | CATGTAAATA | 1.01
50 | CATGTCTCGG | 0.976
51 | CATGTGCGGG | 0.987
52 | CATGTGGAAA | 0.991

Row | Sequence | switch fluorescence ratio
53 | CATGTTGTTG | 0.977
54 | CATTAAGGC | 1.01
55 | CATTAAGTTA | 1.02
56 | CATTACTTTA | 1.07
57 | CATTAGGCC | 1.01
58 | CATTAGTGGC | 1.08
59 | CATTATCCAG | 1.02
60 | CATTATCGAA | 1.01
61 | CATTATCGTC | 0.962
62 | CATTATGACT | 0.984
63 | CATTCACGTC | 1.02
64 | CATTCAGAGG | 1.01
65 | CATTCAGATC | 0.985
66 | CATTCATTTG | 1.01
67 | CATTCCCCAT | 1.06
68 | CATTCCGATC | 1.6
69 | CATTCGCAGA | 3.15
70 | CATTCTGGTT | 0.928
71 | CATTGAAAGC | 0.977
72 | CATTGATCTT | 1.03
73 | CATTGCTGGA | 1.02
74 | CATTGGAAA | 1
75 | CATTGTCAAC | 0.97
76 | CATTGTCTAC | 1.03
77 | CATTGTCTCT | 1.02
78 | CATTGTGGCC | 1.06

Row | Sequence | switch fluorescence ratio
79 | CATTGTTGCG | 0.984
80 | CATTTAACGC | 0.992
81 | CATTTAGAC | 0.969
82 | CATTTAGCCC | 1.01
83 | CATTTAGCTA | 1.04
84 | CATTTCATGC | 0.981
85 | CATTTCGAAG | 1.01
86 | CATTTCTCCG | 3.26
87 | CATTTGGTTT | 0.97
88 | CATTTGTCGG | 0.986
89 | CATTTGTTAC | 1.03
90 | CATTTGTTTC | 1.07
91 | CATTTTAATT | 0.975
92 | CATTTTATC | 0.973
93 | CATTTTATGA | 1.01
94 | CATTTTTCGG | 1.05
95 | CCAAAAACCT | 1.36
96 | CCAAAACGTC | 1.01
97 | CCAAAAGGGC | 1.02
98 | CCAAAAGGT | 1
99 | CCAAAATCTT | 1.01
100 | CCAAAGTAAA | 1.16
101 | CCAAAGTTGA | 0.995
